Test results reported in the supplement of paper PMC10369915.
This is one part of the list. Cut-off read from the data, not from the text of the source: active = 3.2 or more and inactive = the rest. The signal is at background level for most entries.

What was measured:
Assay in all cases: enrichment score (SH2-bound / input frequency) (ratio); bacterial display of known human phosphotyrosine sites (pTyr-Var adds point mutants) read by sequencing; higher = stronger binding; tyrosines were phosphorylated by kinases first
Details in all cases: peptide library: pTyr-Var
[1] = biological target: SHP2 C-SH2 domain E139D
[2] = biological target: SHP2 C-SH2 domain wild-type
[3] = biological target: SHP2 N-SH2 domain L43F
[4] = biological target: SHP2 N-SH2 domain T42A
[5] = biological target: SHP2 N-SH2 domain T52S
[6] = biological target: SHP2 N-SH2 domain wild-type

Measured: enrichment score
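Note: displayed peptides selected on beads carrying the immobilized SH2 domain, with library peptides lacking any tyrosine serving as negative controls.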

PEADKYRLPYA [FGG_Y300_T303P]
inactive: [1] 0.475 | [2] 0.773 | [3] 0.512 | [4] 0.581 | [5] 0.543 | [6] 0.785

EVTQDYGLDPK [FH_Y110_N107T]
inactive: [1] 0.405 | [2] 0.377 | [3] 0.542 | [4] 0.416 | [5] 0.358 | [6] 0.68

DQNVEYKGTVS [FHL1_Y117_W122S]
inactive: [1] 0.643 | [2] 0.524 | [3] 0.446 | [4] 0.451 | [5] 0.631 | [6] 0.692

KGEDFYSVTCH [FHL1_Y149_C150S]
inactive: [1] 0.826 | [2] 1.02 | [3] 0.832 | [4] 0.689 | [5] 0.808 | [6] 1.25

KGEDFYFVTCH [FHL1_Y149_C150Y_YF]
inactive: [1] 0.721 | [2] 1.01 | [3] 0.672 | [4] 0.601 | [5] 0.596 | [6] 0.836

KGEDFYCVTFH [FHL1_Y149_C153Y_YF]
inactive: [1] 0.779 | [2] 1.28 | [3] 1.12 | [4] 0.837 | [5] 1.02 | [6] 1.59

AVEDQYFCVDC [FHL1_Y207_YF]
inactive: [1] 1.71 | [2] 1.61 | [3] 1.68 | [4] 1.42 | [5] 1.56 | [6] 1.78

VEDQYYCVDCY [FHL1_Y208]
active: [1] 6.33 | [2] 5.22 | [3] 6.12 | [4] 5.57 | [5] 4.95 | [6] 5.47

PQDSAYHSGIQ [FLG_Y3940_S3935P]
inactive: [1] 0.578 | [2] 0.484 | [3] 0.536 | [4] 0.552 | [5] 0.579 | [6] 0.798

QLAPQYTYAQG [FLNA_Y1761]
inactive: [1] 0.823 | [2] 1.47 | [3] 0.667 | [4] 0.755 | [5] 0.763 | [6] 0.872

APQYTYTQGGQ [FLNA_Y1763_A1764T]
inactive: [1] 0.927 | [2] 0.816 | [3] 0.296 | [4] 1.72 | [5] 1.49 | [6] 2.37

APQFTYAQGGQ [FLNA_Y1763_YF]
inactive: [1] 0.839 | [2] 0.378 | [3] 0.682 | [4] 0.634 | [5] 0.711 | [6] 0.718

IDQDKYAVHFI [FLNA_Y2388_R2391H]
inactive: [1] 0.787 | [2] 0.815 | [3] 0.955 | [4] 0.65 | [5] 0.915 | [6] 0.877

KKARAYGPGIE [FLNA_Y287]
inactive: [1] 0.412 | [2] 0.385 | [3] 0.56 | [4] 0.46 | [5] 0.411 | [6] 0.504

AVDMTYDGHPV [FLNB_Y1020_V1018M]
inactive: [1] 0.659 | [2] 0.485 | [3] 0.664 | [4] 0.581 | [5] 0.601 | [6] 0.579

GTYVIYVRFGG [FLNB_Y1687]
inactive: [1] 1.27 | [2] 1.27 | [3] 1.3 | [4] 1.37 | [5] 1.33 | [6] 1.45

GTFVIYVRFGG [FLNB_Y1687_YF]
inactive: [1] 0.37 | [2] 0.583 | [3] 0.481 | [4] 0.33 | [5] 0.327 | [6] 0.656

RMDGTYACSYT [FLNB_Y704]
inactive: [1] 0.581 | [2] 0.552 | [3] 0.706 | [4] 0.588 | [5] 0.564 | [6] 0.679

TFACSYTPVKA [FLNB_Y708_YF]
inactive: [1] 2.27 | [2] 1.47 | [3] 1.29 | [4] 3.05 | [5] 1.06 | [6] 1.4

ISNATYKEIGL [FLT1_Y199]
inactive: [1] 0.81 | [2] 0.614 | [3] 1.02 | [4] 0.519 | [5] 0.823 | [6] 0.657

CERLPYDASKW [FLT1_Y815]
inactive: [1] 0.616 | [2] 0.788 | [3] 0.636 | [4] 0.67 | [5] 0.684 | [6] 0.83

SLAARYYNWVC [FLT4_Y1230_S1235C]
inactive: [1] 2.35 | [2] 2.59 | [3] 2.22 | [4] 2.17 | [5] 1.9 | [6] 2

SLAARYFNWVC [FLT4_Y1230_S1235C_YF]
inactive: [1] 3.1 | [2] 2.69 | [3] 2.81 | [4] 2.25 | [5] 2.69 | [6] 2.94

LAARYYNWVSF [FLT4_Y1231]
active: [1] 3.73 | [2] 3.75 | [3] 3.6 | [4] 3.69 | [5] 3.89 | [6] 3.31

LAARYYNWVCF [FLT4_Y1231_S1235C]
inactive: [1] 1.64 | [2] 1.76 | [3] 1.87 | [4] 1.39 | [5] 1.36 | [6] 1.8

GGQVFHNSEYG [FLT4_Y1333_Y1333H]
inactive: [1] 0.814 | [2] 0.706 | [3] 0.714 | [4] 0.577 | [5] 0.685 | [6] 0.769

GGQVFHNSEFG [FLT4_Y1333_Y1333H_YF]
inactive: [1] 0.944 | [2] 0.741 | [3] 0.757 | [4] 0.626 | [5] 0.686 | [6] 0.805

LGLDEYLDKLK [FMNL2_Y352]
inactive: [1] 1.03 | [2] 1.15 | [3] 1.02 | [4] 0.958 | [5] 1.02 | [6] 0.979

TCFDKYTGNTY [FN1_Y101]
inactive: [1] 1.01 | [2] 1.27 | [3] 0.89 | [4] 0.834 | [5] 0.826 | [6] 1.58

TCFDKYTGSTY [FN1_Y101_N104S]
inactive: [1] 0.701 | [2] 0.655 | [3] 0.629 | [4] 0.543 | [5] 0.68 | [6] 0.76

TCFDKYTGNTF [FN1_Y101_YF]
inactive: [1] 1.01 | [2] 1.42 | [3] 0.829 | [4] 0.867 | [5] 0.803 | [6] 1.41

YKIYLYTLNDN [FN1_Y1975]
inactive: [1] 0.895 | [2] 1.29 | [3] 1.44 | [4] 1.03 | [5] 1.16 | [6] 1.2

YKIYRYTLNDN [FN1_Y1975_L1974R]
inactive: [1] 0.873 | [2] 0.798 | [3] 0.692 | [4] 0.715 | [5] 0.822 | [6] 0.844

SAVTGYRVDVI [FN1_Y937]
inactive: [1] 0.781 | [2] 0.565 | [3] 0.726 | [4] 0.477 | [5] 0.584 | [6] 0.546

SAVTGYRVNVI [FN1_Y937_D940N]
inactive: [1] 1 | [2] 0.874 | [3] 0.847 | [4] 0.937 | [5] 0.975 | [6] 0.903

HPWPQYTTRAP [FNDC1_Y1281]
inactive: [1] 0.963 | [2] 0.77 | [3] 0.811 | [4] 0.788 | [5] 0.841 | [6] 0.782

EIIPFYGMSTY [FNDC3B_Y175]
inactive: [1] 0.881 | [2] 0.945 | [3] 0.827 | [4] 0.917 | [5] 0.947 | [6] 0.956
